Test results: the supplement of paper PMC9446081
Among all 39,000 compounds or so, about 220 (0.56%) showed activity. Some of the results follow.

Test system: Escherichia coli K-12 BW25113
Test: relative growth (OD600 normalised to plate interquartile mean) (fraction); higher = less growth inhibition, active = 0.2 or less
Settings: 50 µM; LB; incubation time: overnight (16-24 h)
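Note: static incubation at 37 °C against the wild-type strain, values averaged over two biological replicates.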

| Structure (SMILES) | relative growth |
| --- | --- |
| CC(C)NC(=O)Nc1ccc2c(c1)C(=O)N([C@@H](C)CO)C[C@H](C)[C@@H](CN(C)Cc1ccccc1)OCCCC[C@@H](C)O2 | inactive: 1.02 |
| Cc1ccc(S(=O)(=O)N(C)C[C@H]2Oc3ccc(NS(C)(=O)=O)cc3C(=O)N([C@@H](C)CO)C[C@H]2C)cc1 | inactive: 0.998 |
| C[C@H](CO)N1C[C@H](C)[C@H](CN(C)Cc2ccc(C(F)(F)F)cc2)Oc2c(NC(=O)CCCCCC(=O)Nc3ccccc3N)cccc2C1=O | inactive: 0.955 |
| COCC#Cc1ccc([C@@H]2[C@@H](CO)N3C(=O)CN(C(=O)c4ccncc4)C[C@@H]23)cc1 | inactive: 1 |
| Cc1cc(C(=O)Nc2cccc3c2O[C@@H](CN(C)Cc2ccc(C(=O)O)cc2)[C@@H](C)CN([C@@H](C)CO)C3=O)n(C)n1 | inactive: 1.04 |
| Cc1ccc(S(=O)(=O)N(C)C[C@@H]2OCCCC[C@H](C)Oc3ccc(NC(=O)Nc4ccc(F)cc4)cc3C(=O)N([C@@H](C)CO)C[C@@H]2C)cc1 | inactive: 1.02 |
| C[C@H](CO)N1C[C@H](C)[C@@H](CN(C)C(=O)NC2CCCCC2)Oc2ccc(NC(=O)Nc3cccc4ccccc34)cc2CC1=O | inactive: 0.935 |
| Cc1noc(C)c1NC(=O)N(C)C[C@@H]1OCCCC[C@H](C)Oc2ccc(NS(=O)(=O)c3ccc(F)cc3)cc2C(=O)N([C@@H](C)CO)C[C@H]1C | inactive: 0.988 |
| C[C@@H]1CCCCO[C@@H](CN(C)S(=O)(=O)c2ccccc2)[C@@H](C)CN([C@H](C)CO)C(=O)c2cc(NC(=O)NC3CCCCC3)ccc2O1 | inactive: 0.994 |
| Nc1nc(=O)c2nc(Br)n([C@@H]3O[C@@H]4COP(=O)(O)O[C@H]4[C@H]3O)c2[nH]1 | inactive: 1.03 |
| COc1ccc(NC(=O)Nc2ccc3c(c2)C(=O)N([C@@H](C)CO)C[C@@H](C)[C@H](CN(C)Cc2ccncc2)OCCCC[C@@H](C)O3)cc1 | inactive: 1 |
| C[C@H](CO)N1C[C@H](C)[C@H](CN(C)S(=O)(=O)c2cccs2)OCCCC[C@H](C)Oc2ccc(NS(=O)(=O)c3ccc(Cl)cc3)cc2C1=O | inactive: 1.03 |
| C[C@H](CO)N1C[C@H](C)[C@H](CN(C)Cc2ccc(Oc3ccccc3)cc2)Oc2ccc(NS(=O)(=O)c3cccs3)cc2C1=O | inactive: 1 |
| Nc1nc(=O)c2nc(CNc3ccc(C(=O)NC(CCC(=O)O)C(=O)O)cc3)cnc2[nH]1 (centres undefined) | inactive: 0.996 |
| CN(C)CCN1[C@]2(CCN(C(=O)N3CCOCC3)C2)c2ccccc2S1(=O)=O | inactive: 1.02 |
| C[C@H]1CN([C@@H](C)CO)C(=O)c2cc(-c3ccncc3)cnc2O[C@@H]1CN(C)Cc1ccc(Oc2ccccc2)cc1 | inactive: 1.01 |
| C[C@H](CO)N1C[C@H](C)[C@@H](CN(C)S(=O)(=O)c2cn(C)cn2)Oc2ccc(NC(=O)Nc3ccc(F)cc3)cc2C1=O | inactive: 1.02 |
| COc1ccc(CN(C)C[C@@H]2OCCCC[C@H](C)Oc3ccc(NC(=O)Nc4ccccc4)cc3C(=O)N([C@H](C)CO)C[C@H]2C)cc1 | inactive: 0.987 |
| CCCNC(=O)N1C[C@H](O)COC[C@@H]2O[C@H](CC(=O)NCCCN3CCOCC3)CC[C@H]21 | inactive: 1 |
| O=C(C[C@H]1C[C@H]2c3cc(NC(=O)Cc4ccncc4)ccc3O[C@H]2[C@H](CO)O1)NCCN1CCCCC1 | inactive: 1.02 |

| Structure (SMILES) | relative growth |
| --- | --- |
| C[C@H](CO)N1C[C@H](C)[C@H](CN(C)S(=O)(=O)c2cccs2)OCCCC[C@H](C)Oc2ccc(NC(=O)Nc3ccc4c(c3)OCO4)cc2C1=O | inactive: 0.978 |
| O=C(O[C@H](Cc1ccc(O)c(O)c1)C(=O)O)[C@H]1[C@H](C(=O)O[C@@H](Cc2ccc(O)c(O)c2)C(=O)O)[C@H](c2ccc(O)c(O)c2)[C@@H]1c1ccc(O)c(O)c1 | inactive: 1.01 |
| CCOC(=O)c1cn2cn[nH]c2nc1=O | inactive: 0.907 |
| CCNC(=O)C[C@@H]1CC[C@@H]2[C@@H](COc3ccc(NS(=O)(=O)c4ccccc4C)cc3C(=O)N2C)O1 | inactive: 0.987 |
| C[C@@H]1CCCCO[C@@H](CN(C)C(=O)Nc2cccc3ccccc23)[C@H](C)CN([C@H](C)CO)C(=O)c2cc(N(C)C)ccc2O1 | inactive: 1 |
| C[C@H](CO)N1C[C@H](C)[C@H](CN(C)C(=O)C2CCC2)Oc2cc(-c3ccc(C(=O)N(C)C)cc3)ccc2S1(=O)=O | inactive: 1.01 |
| C=C1CC23CC1(O)CCC2C12C=CC(O)C(C)(C(=O)O1)C2C3C(=O)O (centres undefined) | inactive: 1.02 |
| COc1cc2c(cc1OC)C([C@H](C(=O)N(CCc1ccc(OC)c(OC)c1OC)CCc1ccc(OC)c(OC)c1OC)c1ccccc1)=NCC2 | inactive: 1.01 |
| C[C@H]1CN([C@@H](C)CO)C(=O)c2cc(NS(C)(=O)=O)ccc2O[C@H]1CN(C)S(=O)(=O)c1cn(C)cn1 | inactive: 1.01 |
| S=C1NCN(CCc2ccccc2)CN1 | inactive: 1.01 |
| COC(=O)CC[C@H]1CCCNC1 | inactive: 0.98 |
| C[C@@H]1CCCCO[C@@H](CN(C)Cc2ccc(C(=O)O)cc2)[C@@H](C)CN([C@@H](C)CO)C(=O)c2cc(NC(=O)Nc3ccc4c(c3)OCO4)ccc2O1 | inactive: 1.02 |
| COc1ccc(S(=O)(=O)Nc2ccc3c(c2)CC(=O)N([C@H](C)CO)C[C@H](C)[C@@H](CN(C)C)O3)cc1 | inactive: 0.998 |
| CC1=NN2C(=NN[C@@]2(C)c2ccccc2)NC1=O | inactive: 0.966 |
| Cc1cc(C)c2cc3c(nc2c1)NCC3 | inactive: 0.601 |
| COc1cccc(S(=O)(=O)N2C[C@H](O)COC[C@@H]3O[C@@H](CC(=O)N4CCN(C)CC4)CC[C@H]32)c1 | inactive: 0.901 |
| O=C1NCCN2CCN(C(=O)Cn3cccc3)C[C@@H]12 | inactive: 1 |
| COCCNC(=O)C[C@@H]1CC[C@H]2[C@H](COc3ccc(NS(=O)(=O)c4ccc(Cl)cc4)cc3C(=O)N2C)O1 | inactive: 0.967 |
| C[C@@H]1CCCCO[C@@H](CN(C)C(=O)c2ccncc2)[C@H](C)CN([C@@H](C)CO)C(=O)c2cc(NS(C)(=O)=O)ccc2O1 | inactive: 0.975 |
